Biological target: VEGF-165, VEGFC and VEGFD mixture
Assay: cell-based or functional assay

Maximum neutralization rate Emax (%), VEGF165, VEGFC and VEGFD mixture, HUVEC proliferation: 86.1%
B1: humanized antibody VEGF-H988 (antibody, human IgG1, kappa)
heavy: QSVQESGPGLVKPSETLSLTCTVSGIDLSSYAISWVRQPPGKGLEYIGYIWNDLFTYYASWAKGRVTISVDTSKNQVDLKLSSVTAADTAVYFCARGTLGDYGGMDPWGQGTLVTVSS[sequence of human IgG1 constant region omitted]
light: ELQLTQSPSSLSASVGDRVTITCQSSKFLWQGRRLAWYQQKPGKVPKLLIYGASTLASGVPSRFKGSGSGTDFTLTISSLQPEDVATYYCAGYKSYDGDVVGFGGGTKVEIKRTVAAPSVFIFPPSDEQLKSGTASVVCLLNNFYPREAKVQWKVDNALQSGNSQESVTEQDSKDSTYSLSSTLTLSKADYEKHKVYACEVTHQGLSSPVTKSFNRGEC
